# From the supplement of paper PMC8728848
# This is one part of the list.
# Key:
# Experiment in all cases: glycan array binding signal (z-score within array); higher = stronger binding
# Conditions in all cases: glycan notation: IUPAC condensed, linker removed
# [1] = target: Neu5Ac(a2-3)Gal(b1-4)GlcNAc(b1-3)Gal(b1-4)GlcNAc(b1-3)Gal(b1-4)GlcNAc
# Procedure, shortened: (§1)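 Negative Z-scores can be read as non-binding. The Z-score is calculated within each array and then averaged across arrays of one protein sequence at different concentrations or buffers and across linkers. Arrays, 3228 in all, were curated from the Consortium for Functional Glycomics database and kept only where the protein sequence was available.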
# [2] = target: Neu5Ac(a2-3)Gal(b1-4)GlcNAc(b1-3)Gal(b1-4)GlcNAc(b1-3)Gal(b1-4)GlcNAc(b1-2)Man(a1-3)[Neu5Ac(a2-3)Gal(b1-4)GlcNAc(b1-3)Gal(b1-4)GlcNAc(b1-3)Gal(b1-4)GlcNAc(b1-2)Man(a1-6)]GalNAc
# Procedure, shortened: as §1
# [3] = target: Neu5Ac(a2-3)Gal(b1-4)GlcNAc(b1-3)Gal(b1-4)GlcNAc(b1-3)GalNAc
# Procedure, shortened: as §1
# [4] = target: Neu5Ac(a2-3)Gal(b1-4)GlcNAc(b1-3)Gal(b1-4)GlcNAc(b1-3)[Neu5Ac(a2-3)Gal(b1-4)GlcNAc(b1-3)Gal(b1-4)GlcNAc(b1-6)]GalNAc
# Procedure, shortened: as §1
# [5] = target: Neu5Ac(a2-3)Gal(b1-4)GlcNAc(b1-3)Gal(b1-4)GlcNAc(b1-6)[Gal(b1-3)]GalNAc
# Procedure, shortened: as §1
# [6] = target: Neu5Ac(a2-3)Gal(b1-4)GlcNAc(b1-3)Gal(b1-4)[Fuc(a1-3)]GlcNAc
# Procedure, shortened: as §1
# [7] = target: Neu5Ac(a2-3)Gal(b1-4)GlcNAc(b1-3)GalNAc
# Procedure, shortened: as §1
# [8] = target: Neu5Ac(a2-3)Gal(b1-4)GlcNAc(b1-3)[Neu5Ac(a2-3)Gal(b1-4)GlcNAc(b1-6)]GalNAc
# Procedure, shortened: as §1
# [9] = target: Neu5Ac(a2-3)Gal(b1-4)GlcNAc(b1-6)GalNAc
# Procedure, shortened: as §1
# [10] = target: Neu5Ac(a2-3)Gal(b1-4)GlcNAc(b1-6)[Gal(b1-3)]GalNAc
# Procedure, shortened: as §1
# [11] = target: Neu5Ac(a2-3)Gal(b1-4)GlcNAc(b1-6)[Neu5Ac(a2-3)Gal(b1-3)]GalNAc
# Procedure, shortened: as §1
# [12] = target: Neu5Ac(a2-3)Gal(b1-4)GlcNAc6S
# Procedure, shortened: as §1
# [13] = target: Neu5Ac(a2-3)Gal(b1-4)[Fuc(a1-3)]GlcNAc
# Procedure, shortened: as §1
# [14] = target: Neu5Ac(a2-3)Gal(b1-4)[Fuc(a1-3)]GlcNAc(b1-2)Man
# Procedure, shortened: as §1
# [15] = target: Neu5Ac(a2-3)Gal(b1-4)[Fuc(a1-3)]GlcNAc(b1-3)Gal
# Procedure, shortened: as §1
# [16] = target: Neu5Ac(a2-3)Gal(b1-4)[Fuc(a1-3)]GlcNAc(b1-3)Gal(b1-4)GlcNAc
# Procedure, shortened: as §1
# [17] = target: Neu5Ac(a2-3)Gal(b1-4)[Fuc(a1-3)]GlcNAc(b1-3)Gal(b1-4)[Fuc(a1-3)]GlcNAc(b1-3)Gal(b1-4)[Fuc(a1-3)]GlcNAc
# Procedure, shortened: as §1
# [18] = target: Neu5Ac(a2-3)Gal(b1-4)[Fuc(a1-3)]GlcNAc(b1-3)GalNAc
# Procedure, shortened: as §1
# [19] = target: Neu5Ac(a2-3)Gal(b1-4)[Fuc(a1-3)]GlcNAc(b1-6)[Gal(b1-3)]GalNAc
# Procedure, shortened: as §1
# [20] = target: Neu5Ac(a2-3)Gal(b1-4)[Fuc(a1-3)]GlcNAc(b1-6)[Neu5Ac(a2-3)Gal(b1-3)]GalNAc
# Procedure, shortened: as §1
# [21] = target: Neu5Ac(a2-3)Gal(b1-4)[Fuc(a1-3)]GlcNAc6S
# Procedure, shortened: as §1
# [22] = target: Neu5Ac(a2-3)Gal6S(b1-4)GlcNAc
# Procedure, shortened: as §1
# [23] = target: Neu5Ac(a2-3)Gal6S(b1-4)[Fuc(a1-3)]GlcNAc
# Procedure, shortened: as §1
# Neu5Ac(a2-3)GalNAc = target: Neu5Ac(a2-3)GalNAc
# Procedure, shortened: as §1
# [24] = target: Neu5Ac(a2-3)GalNAc(b1-4)GlcNAc
# Procedure, shortened: as §1
# [25] = target: Neu5Ac(a2-3)[GalNAc(b1-4)]Gal(b1-4)Glc
# Procedure, shortened: as §1
# [26] = target: Neu5Ac(a2-3)[GalNAc(b1-4)]Gal(b1-4)GlcNAc
# Procedure, shortened: as §1
# [27] = target: Neu5Ac(a2-3)[GalNAc(b1-4)]Gal(b1-4)GlcNAc(b1-3)GalNAc
# Procedure, shortened: as §1
# [28] = target: Neu5Ac(a2-3)[Neu5Ac(a2-6)]GalNAc
# Procedure, shortened: as §1
# Neu5Ac(a2-6)Gal = target: Neu5Ac(a2-6)Gal
# Procedure, shortened: as §1
# [29] = target: Neu5Ac(a2-6)Gal(b1-3)GlcNAc(b1-3)[Gal(b1-4)GlcNAc(b1-6)]Gal(b1-4)Glc
# Procedure, shortened: as §1
# Neu5Ac(a2-6)Gal(b1-4)Glc = target: Neu5Ac(a2-6)Gal(b1-4)Glc
# Procedure, shortened: as §1
# [30] = target: Neu5Ac(a2-6)Gal(b1-4)GlcNAc
# Procedure, shortened: as §1
# [31] = target: Neu5Ac(a2-6)Gal(b1-4)GlcNAc(b1-2)Man
# Procedure, shortened: as §1
# [32] = target: Neu5Ac(a2-6)Gal(b1-4)GlcNAc(b1-2)Man(a1-3)Man(b1-4)GlcNAc(b1-4)GlcNAc
# Procedure, shortened: as §1
# [33] = target: Neu5Ac(a2-6)Gal(b1-4)GlcNAc(b1-2)Man(a1-3)[Gal(b1-4)GlcNAc(b1-2)Man(a1-6)]Man(b1-4)GlcNAc(b1-4)GlcNAc
# Procedure, shortened: as §1
# [34] = target: Neu5Ac(a2-6)Gal(b1-4)GlcNAc(b1-2)Man(a1-3)[GlcNAc(b1-2)Man(a1-6)]Man(b1-4)GlcNAc(b1-4)GlcNAc
# Procedure, shortened: as §1
# [35] = target: Neu5Ac(a2-6)Gal(b1-4)GlcNAc(b1-2)Man(a1-3)[GlcNAc(b1-4)][Neu5Ac(a2-6)Gal(b1-4)GlcNAc(b1-2)Man(a1-6)]Man(b1-4)GlcNAc(b1-4)GlcNAc
# Procedure, shortened: as §1
binder,measurement,setting,value
B1257 (Bifidobacterium sp) (protein) MKKSIRLVAAIAALAMTAGISACGSSTNGNQAKSDVTAQDVETALTDTSKNVELTVWAYSAKQMEPTVKAFEKKYPHIKINFVNTGAAGDHFTKFQNVVQAQKDIPDVVQMGANKFQQFAVSGALLNFANDSIEKAWSKLYTKTAWAQVHYAGGLYGAPQDATPLANYVRKDILDEHNLQVPESWEDIYNEGIKLHKEDSNKYMGILGSDISFFTNLYRSVGARLWKVNSVDDVELTMNSGKAKEFTEFLQKCLKDGVLEGGTVFTDEFNRSINDGRYATFINENWMGNTYKEQNPSLKGKMVVAAPPSWKGQPYQSSSVGSMMSVSAACPKEKQAAALAFINWLDSDKDAIQSWQDTNNGNFFMAASVYQDDENQRNKKETDGYYANDDVNAVYFDSMDKVNTDWEYLPFMSQVEVVFNDVIVPQMNENGDLVGAMAKAQQELKTYAKDNGFKVTTDAD,glycan array binding signal (z-score),[1],-0.131
same,glycan array binding signal (z-score),[2],0.156
same,glycan array binding signal (z-score),[3],-0.094
same,glycan array binding signal (z-score),[4],-0.089
same,glycan array binding signal (z-score),[5],-0.087
same,glycan array binding signal (z-score),[6],-0.196
same,glycan array binding signal (z-score),[7],0.727
same,glycan array binding signal (z-score),[8],-0.1
same,glycan array binding signal (z-score),[9],-0.129
same,glycan array binding signal (z-score),[10],0.13
same,glycan array binding signal (z-score),[11],-0.127
same,glycan array binding signal (z-score),[12],-0.065
same,glycan array binding signal (z-score),[13],-0.193
same,glycan array binding signal (z-score),[14],-0.237
same,glycan array binding signal (z-score),[15],-0.165
same,glycan array binding signal (z-score),[16],0.008
same,glycan array binding signal (z-score),[17],0.013
same,glycan array binding signal (z-score),[18],0.158
same,glycan array binding signal (z-score),[19],0.14
same,glycan array binding signal (z-score),[20],0.061
same,glycan array binding signal (z-score),[21],-0.091
same,glycan array binding signal (z-score),[22],-0.197
same,glycan array binding signal (z-score),[23],-0.194
same,glycan array binding signal (z-score),Neu5Ac(a2-3)GalNAc,-0.249
same,glycan array binding signal (z-score),[24],-0.161
same,glycan array binding signal (z-score),[25],-0.082
same,glycan array binding signal (z-score),[26],-0.106
same,glycan array binding signal (z-score),[27],-0.074
same,glycan array binding signal (z-score),[28],-0.127
same,glycan array binding signal (z-score),Neu5Ac(a2-6)Gal,0.042
same,glycan array binding signal (z-score),[29],-0.127
same,glycan array binding signal (z-score),Neu5Ac(a2-6)Gal(b1-4)Glc,-0.093
same,glycan array binding signal (z-score),[30],-0.192
same,glycan array binding signal (z-score),[31],0.048
same,glycan array binding signal (z-score),[32],-0.097
same,glycan array binding signal (z-score),[33],-0.031
same,glycan array binding signal (z-score),[34],-0.036
same,glycan array binding signal (z-score),[35],-0.123
